The full ranking holds about 33,000 sequences; the median of “E-score (-0.5 to 0.5)” is about -0.054, and the highest 2% start at about 0.35. The list shows a part of the results.
What follows are sequences tested against T1, Stb5 (UniProt P38699) (assay: PBM E-score (8-mer binding enrichment) (E-score (-0.5 to 0.5)); higher = stronger / more preferred TF binding; most listed sequences are background and not binding sites). Details: protein concentration: 200 nM; construct: GST-full length.
T1 sequence: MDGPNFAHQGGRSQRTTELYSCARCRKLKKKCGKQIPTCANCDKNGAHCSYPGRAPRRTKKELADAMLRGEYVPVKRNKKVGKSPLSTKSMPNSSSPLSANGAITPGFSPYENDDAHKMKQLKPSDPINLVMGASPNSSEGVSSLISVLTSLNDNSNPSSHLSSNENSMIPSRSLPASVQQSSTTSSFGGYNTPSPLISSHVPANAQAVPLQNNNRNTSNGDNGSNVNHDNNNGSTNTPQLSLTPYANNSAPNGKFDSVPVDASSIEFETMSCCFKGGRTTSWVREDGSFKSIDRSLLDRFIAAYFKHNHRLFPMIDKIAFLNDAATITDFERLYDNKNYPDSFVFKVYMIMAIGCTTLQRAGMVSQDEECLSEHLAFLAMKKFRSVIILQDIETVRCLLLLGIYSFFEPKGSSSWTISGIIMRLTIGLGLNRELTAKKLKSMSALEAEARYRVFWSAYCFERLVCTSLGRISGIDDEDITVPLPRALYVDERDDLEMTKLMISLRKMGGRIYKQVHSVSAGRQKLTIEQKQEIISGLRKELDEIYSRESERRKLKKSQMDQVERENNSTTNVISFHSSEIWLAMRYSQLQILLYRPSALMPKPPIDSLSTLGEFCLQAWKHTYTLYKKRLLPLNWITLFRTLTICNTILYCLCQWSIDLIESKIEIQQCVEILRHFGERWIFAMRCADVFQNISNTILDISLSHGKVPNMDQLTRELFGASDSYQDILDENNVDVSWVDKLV
Method in brief: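 E-scores (a modified Wilcoxon-Mann-Whitney statistic) were assigned by the Universal PBM Analysis Suite to every ungapped eight-base word pooled with its reverse complement. The input came from universal all-10-mer Agilent arrays made double-stranded by primer extension and probed with GST-tagged yeast transcription factors at about 100-200 nM. Fluorescent anti-GST detected bound protein, and masliner normalised the scans.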

Sequence | PBM E-score
CATAAAAA | -0.0509
GACGAGGC | -0.00106
TCTTCCAA | -0.0975
TAGCCACA | -0.259
AACACCTT | 0.197
AGTAGACT | -0.0924
GACGTTCC | -0.119
GAATACTA | -0.0399
ATAGGTTA | 0.0214
ACCGTCGA | 0.286
ATTGAGAA | -0.0471
GGCGTAAA | 0.169
CGTCGAAG | -0.0996
ACCTGTCG | 0.139
AGTGGTAA | -0.159
CGTCCATC | 0.0509
CGAAGATC | -0.0335
TGACTAAA | -0.163
CTTGATGA | 0.0228
CTAAATAC | 0.0967
TGGGCCCA | -0.136
TAACCAAA | -0.149
AAAAGGCT | -0.0922
CCGACATA | 0.297
ACTAGGTA | -0.25

Sequence | PBM E-score
AGTCTCAA | -0.108
GAGTGGCA | -0.141
ACTACCTG | -0.13
GTACACAC | 0.0547
ACAAGGCA | -0.129
CAGCCACG | -0.0791
AAACTCTT | -0.233
CTAGTGCC | 0.256
GACAAGGA | -0.0928
CCTTGGAA | -0.0512
GTGGCGGA | 0.279
AGGATACA | -0.238
AATCCGTC | 0.179
GAACGGGA | 0.247
ACCCAAGC | -0.111
CGAAGAAG | -0.145
AGGGATTA | 0.0519
AGAAATCC | 0.0394
CCTGAGCA | -0.127
ACTACCAC | -0.111
GCACCGCC | 0.377
AGCAGGGC | -0.115
ACGATCTG | -0.179
CGCCCTGA | -0.099
CTGGTATC | -0.254

Sequence | PBM E-score
GCATGAAA | -0.227
GATCGGTA | 0.306
AAGACATT | -0.267
ACATGGAG | -0.0962
GAGCTCCA | -0.203
ACAAGTGT | -0.136
ATAATTAA | -0.0125
AGCATCAC | -0.133
CACAAACC | -0.197
ATGCACGA | 0.0374
AACTACAT | -0.269
CCTCCAGG | -0.318
ACTTCTAT | -0.24
CTCAGGAC | -0.0868
AAGAACCG | 0.262
CATCTCTA | -0.0228
ACATTCCT | -0.208
AGCCGAAC | -0.0834
CCCCCAAG | -0.233
CCAGCACG | -0.229
GCAACCTA | -0.349
GCGGTTCA | 0.0363
GACCGCAA | 0.248
CGCCGATC | 0.363
TGGGACAA | -0.192

Sequence | PBM E-score
GCCAAAAA | -0.0844
ATAAACAC | 0.165
ACGAACAG | -0.198
TAACAGCA | -0.0283
ACGGTTAG | -0.0257
GCTGAGGA | -0.0641
AGGAATGC | -0.266
AATCCGAG | 0.00616
AACAGCAC | 0.0322
CTTTGACC | 0.117
TCTTTCAA | -0.0737
GGCCTTGA | 0.0758
GCATCGGA | 0.27
CGGATTCA | 0.179
ACGTACCA | -0.172
AATCTCTC | -0.145
ACCACTCG | -0.142
CCCTCCTC | -0.276
GTAGTGGA | -0.0856
AGTCTTTG | -0.363
AAATAAGT | -0.098
ATAGCAGC | 0.0423
ACCCTAGC | 0.00919
ATACATAC | -0.0979
CAAGTTTA | -0.0173

Sequence | PBM E-score
GCGGTTAC | 0.275
GATCGAAC | -0.0588
CCCAGTGC | -0.118
GTTTTGCA | -0.107
GAGCTTCA | -0.0106
AGTTTCTG | -0.117
CGAACGAA | -0.0975
AGCTCTCA | -0.109
CTAAGCAA | -0.0185
GTTTAGTA | -0.0646
AAGCTCTG | -0.32
ACGAATTG | -0.124
CCACCTGC | -0.227
CAGTCATC | -0.027
CGTACCGA | 0.205
CCTTTCTC | -0.297
CTGCATCC | 0.0192
ACAAACAA | -0.0945
ATATATTC | 0.158
CCTAATTA | -0.183
CCCCCATC | -0.0751
AATCCGGC | 0.198
GTCCTTAA | -0.0925
TAGGTCAA | -0.135
CGTAATAG | -0.0468

Sequence | PBM E-score
TCCGTCCA | 0.249
ATAGTCTA | -0.0767
CGTCATGA | -0.0111
ATACCGAG | 0.224
AATTAGGC | -0.0196
CGTGAACA | -0.0606
ATATGTGC | 0.168
CTCATTTC | -0.154
ACTGGTAC | -0.031
ATTTGCCC | 0.147
GGGTATTA | 0.243
ACCCGAAA | -0.00369
ACGAGGTC | -0.153
GCGGGTAA | 0.124
AGCATTAT | -0.206
CATAGAGG | -0.173
GGCCGTAC | 0.23
TACATCAA | 0.0251
CCGACTCG | 0.177
AGATTTGG | -0.12
CACAACCA | 0.0518
GAGTGGGC | 0.0251
AATTCTGC | -0.0466
AAGCGGCG | 0.349
AATAGTAT | 0.0601

Sequence | PBM E-score
CAATGAAG | -0.163
CTATGTTC | -0.013
AACAGAGA | -0.0526
ATGGGGCC | 0.00088
CCATCAAC | -0.0784
AGACCACT | -0.265
AATAAGTC | 0.0443
GCCAGCGA | -0.203
ACACTAGC | -0.238
AACTTATT | 0.0716
AACGGTTA | 0.0607
CGGACACG | 0.232
AACTGTAG | -0.188
AAGTATCC | 0.00528
CGGGGGTC | 0.26
AAATACAA | -0.0203
GCCTGTAC | -0.163
CACTTCGC | -0.171
CATGAAAA | -0.173
GGGAACCC | 0.0613
CGACGAGA | -0.0598
CCGGCTCG | 0.167
